# Experimental data reported in the supplement of paper PMC11417369.
# ± gives the standard deviation of the averaged measurements. The list shows a part of the results.
# Tested on: PfAP2-LT AP2 domain (GST-tagged)
# Assay: gcPBM binding intensity (ln(normalized median fluorescence intensity)); higher = stronger DNA binding
# Summary of the method: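 In this array assay, P. falciparum DNA-binding domains with a GST tag, expressed in E. coli, were applied for 1 h to primer-extended double-stranded 36-bp intergenic genomic probes and negative controls on an Agilent 4 × 180k array. Bound protein was visualised with Alexa488 anti-GST antibody at 488 nm. Binding intensity is the highest Masliner-normalised natural-log median intensity across replicate spots of either probe orientation.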
row,Sequence,gcPBM binding intensity (ln)
1,ATAAGCATACATATTACACACATATAACATCTATAT [CACACA_site7219],9.21 ± 0.37
2,AAATTATTAAAAAAGTGTACATATTTTTATAATACC [XGTACX_site5610],8.56 ± 0.4
3,TTAATCAAATTACTATGTACATAAAACATATAAGAA [XGTACX_site381],8.73 ± 0.43
4,TATTTTTTTTCAAAAAAGTTTATTTAGAACTAAATA [XGTACX_negctrl_site487],7.86 ± 0.4
5,AAAAAAAAAAAAAGTACACACATACAGATAAATATA [CACACA_site5067],9.16 ± 0.48
6,ATAAATTGATTCAACACACACATATGTAGGAAGTTA [CACACA_site3253],9.2 ± 0.42
7,TTTTTTAAATTGGTAGTGCAATATGATTGAACAAAA [GTGCAC_site9715],8.29 ± 0.28
8,AATATATCTTATTTAACACACACAAAGAAAATAGAA [CACACA_site9242],9.19 ± 0.38
9,TGTTATCAGAAAGCACGTACATATAATTATATATTC [XGTACX_site4188],8.83 ± 0.41
10,AATACAATAAAAAAAAGTACACATGTATAAAAAATT [XGTACX_site8270],9.46 ± 0.64
11,TATATATATATACATACATGCATATATATATATATA [TGCATGCA_site513],9.45 ± 0.3
12,GAATATGTAAAGAAAGGTACACATGAAAATATGTGT [XGTACX_site446],8.94 ± 0.45
13,ATGAATTAATCTAATCGTACAATAAGCATTATTATA [XGTACX_site2571],8.57 ± 0.38
14,TGTACCTACAAAATATGATATATTTTTATAAATTGT [XGTACX_negctrl_site498],8.51 ± 0.47
15,TAGAAAATCAGTTAAACACACACATAAAAAAAAAAA [CACACA_site8933],9.23 ± 0.49
16,TATATAATATATATATGTACACATTTGCAAACAATG [XGTACX_site6941],8.82 ± 0.34
17,TTCTTATTTGTACTAGTGCAATAGAAAATAAATAAA [GTGCAC_site9731],8.33 ± 0.37
18,ATTTTTTTTTTTTATAGTGGATCCACATTTGCCATT [CACACA_negctrl_site1284],8.93 ± 0.57
19,ATATATTTTAATTGTTGTACATATTAAATAAATAGG [XGTACX_site2311],8.53 ± 0.41
20,TATATTTTATATATGGTGCAACTTTTATTTAAATAA,8.3 ± 0.46
21,ACATAAATATAAACGTGTACATATATAAATATATAT [XGTACX_site7293],9.06 ± 0.4
22,CATATATAAAAAAACACACACATATATATATATATA [CACACA_site1195],9.82 ± 0.042
23,AAGAAAGACATTACGTGTACCAAACAACCTACCAAC [XGTACX_site4219],9.35 ± 0.4

row,Sequence,gcPBM binding intensity (ln)
1,AAAATTAAACTCACACCACACACAAAAAAAAAAAAA [CACACA_site8131],9.35 ± 0.49
2,TGTTTTATCTTATATGCACACGATAAAAAAAAAAAA [CACACA_site2674],8.63 ± 0.45
3,ATGTATATGTCTATATGTACTTATATTTTATTTTTT [XGTACX_site5902],8.77 ± 0.35
4,TTACAAGTAAAAGGTACACACATTATAAATACAAAT [CACACA_site4752],9.19 ± 0.45
5,CATTATTCATTTTGGATGCACTGACAGAAAAATGGT,8.69 ± 0.43
6,ATGCTCAGGAAAACATGTACAAAATTATTTGTTATA [XGTACX_site4306],8.69 ± 0.4
7,ATATGACATAAAACATGTACATGTTCATAAATATAT [XGTACX_site1923],9.06 ± 0.44
8,TGAGTACACAATAATACATGCAATTCCTATGAATAT [TGCATGCA_site851],8.97 ± 0.43
9,ATAAATATTAAAAGTACACACAGATACACTAATTAT [CACACA_site1808],9.16 ± 0.36
10,ATTTACATAATAAAATGTACATTTATAAATATTATA [XGTACX_site1901],8.6 ± 0.43
11,TACACTTTTTATGAAGTGCATGTATAGCTCTTAAAA [GTGCAC_site9595],8.37 ± 0.33
12,TGCAGTCTGGAGAAACGTACACAGTATCTGGTAACC [XGTACX_site2543],8.8 ± 0.47
13,TTTTGTGCTTAAAAAAGTACAAAATATAAAAAAAAT [XGTACX_site7876],8.56 ± 0.38
14,CCCACAGACGGACACACACACACACCGACACATATA [CACACA_site4356],10 ± 0.26
15,AAAATTGAACCTGACAAGGTATTTTATTATTTATTA [TGCATGCA_negctrl_site181],8.36 ± 0.48
16,TTCTATTTTAATATCTGTACATAATAAAGATCCATT [XGTACX_site1142],8.46 ± 0.49
17,AGTTTTTATAAAAATAGTACATATTTATTAATCTGT [XGTACX_site5881],8.57 ± 0.38
18,AATTTAATATAATGCACACATAAAACAAAAACAAAA [CACACA_site529],9.02 ± 0.4
19,TATTATCGTTCTCATACACACAAAATATACATACAC [CACACA_site2643],9.12 ± 0.4
20,TACGTAAATGTGTGTGTGCACGTTATATATTAATAT [GTGCAC_site9976],9.54 ± 0.24
21,CATTTTTTATTTCCTTGTACGAATAAAATATATTTA [XGTACX_site6844],8.43 ± 0.52
22,AATACACTAAACAAAAGTACAAAAATATTCTACAAA [XGTACX_site5162],8.97 ± 0.42
23,ATGGCCTCATTTGGGACACACAACATAAAATATATA [CACACA_site753],8.84 ± 0.59

row,Sequence,gcPBM binding intensity (ln)
1,ATAAACATATAAAAAGTGCATATTCATATATCTACT,8.82 ± 0.39
2,TGTTAATTATAAATTTGTACTTATTTTTACAAAATA [XGTACX_site6598],8.51 ± 0.49
3,AAATATATTTTATGTACACACAAAATTAAGGGATAT [CACACA_site4881],9.06 ± 0.49
4,TTATAATAATATAATACATGCATATATATTTAAATA [TGCATGCA_site903],8.53 ± 0.43
5,TCACTATAATAATTTACACACATTTTAAGAAAATGT [CACACA_site3530],9.02 ± 0.42
6,GAATATTAATTCATACGTACTTATATATAAGTATAT [XGTACX_site3707],8.7 ± 0.41
7,AAAATGAATAAAAATACACACATATCTGTTATTCTC [CACACA_site5474],8.97 ± 0.45
8,TATAAAAATGGGCACACACACACATATATATATTTA [CACACA_site1527],9.835 ± 0.05
9,AACTTAAAAAATAAATGTACATAAATATAAACATAT [XGTACX_site2987],8.88 ± 0.32
10,AAAAAAAAAAAAATCACACATAATATAGAATATGTA [CACACA_site4993],8.53 ± 0.51
11,ATATATATATATATAACACACGCAAAAAAATTAAAT [CACACA_site8395],9.32 ± 0.4
12,TATTTAAATTTTAAGTGTACATATTTATTTATATCT [XGTACX_site6545],8.61 ± 0.58
13,AAAAAAAAAAAAAACATACACACAATAAAATAGGGG [CACACA_site2398],9.32 ± 0.099
14,ATTTTTTTTTTTTTTTTTTTTTTATTCTTGTAATCT [CACACA_negctrl_site1039],8.65 ± 0.64
15,ATATAATAATAAAGACGTACAAATGTATATATATAC [XGTACX_site3123],9.2 ± 0.35
16,ATGTAAGTTGTGCATTCACACACATATATATATATA [CACACA_site9086],9.73 ± 0.28
17,CCTTTTTATCTTTTTGTGCACAGACCTTTTTTAAAT,9.48 ± 0.28
18,TAAAAATTATATATCACACATATATGTCAGTATACA [CACACA_site4624],8.87 ± 0.48
19,ATTTATATGTGGAGCAGTACGCACTCTCACAATTAA [XGTACX_site7252],8.7 ± 0.38
20,TAATATATGTATATATGTACATATAAATGTTATAGA [XGTACX_site2721],8.78 ± 0.43
21,TTGGTATAAAATTATAGTACATAAGGTAAATATAAA [XGTACX_site4698],8.74 ± 0.52
22,GATGTTCATCACTACACACACAAAGAAATATATATA [CACACA_site2684],9.42 ± 0.42
23,AAAGAAAAAAAATATAAAAAATAAAAAATAAAACAA [CACACA_negctrl_site374],8.56 ± 0.8

row,Sequence,gcPBM binding intensity (ln)
1,TTGTATTTCCTTAGGAGTACACATAAATAAGTAAAT [XGTACX_site6677],8.56 ± 0.41
2,GTAAAATATATAAAATGTACATATATTATATATATA [XGTACX_site489],8.77 ± 0.38
3,CATTTAAAAGATAAAACACACATACTAATAAAAAAC [CACACA_site5417],8.98 ± 0.43
4,TTTCTTTATTAAAATATTTTACATATATAATATACG [TGCATGCA_negctrl_site564],8.62 ± 0.54
5,CTTCTCTTTTTTATCATGCACTTTTTGTATAATAAT [GTGCAC_site9834],8.86 ± 0.38
6,ACATATATTATTATATGTACATATATTAATTATATA [XGTACX_site3400],8.66 ± 0.28
7,ATCATTTTTAAAGGAACACACAAAAAAAATTAAAAT [CACACA_site4878],8.72 ± 0.57
8,ACTCTCTTATATTAAACACACATATATATCTGTATA [CACACA_site5489],9.24 ± 0.35
9,AAAAAATCACGACACACACACACACTAAAAAAAAAA [CACACA_site6792],10.1 ± 0.2
10,ATTTTTTGGAAAAGAAGTACAATGGATTTATACGTT [XGTACX_site891],8.55 ± 0.48
11,ATCAAATAATAGCAAACACACAAAAAATAAAAAAAA [CACACA_site4146],9.04 ± 0.47
12,AATGTTTTTTTTTTTTTTTTTTTTTATTTATTGTTA [CACACA_negctrl_site505],8.65 ± 0.47
13,TAACATATAATATTATGTACATATATACATATATAA [XGTACX_site7467],8.58 ± 0.37
14,TATTTCAATATATACCTTTGCTTTTTTAATATACTT [XGTACX_negctrl_site556],8.62 ± 0.53
15,TCAATATAAATTAGTTGTACAGTTTTTTTTAATTAT [XGTACX_site6358],8.55 ± 0.51
16,AATATAAATAAAAACACACACAATGGTACCTATATA [CACACA_site7688],9.3 ± 0.39
17,TTTAAATAATCTAGGTGTACTTTCCTTTATAAATGT [XGTACX_site7859],8.62 ± 0.52
18,AGAATACATATATGAACACACAGAGTTTTAAAAAAT [CACACA_site2735],9.11 ± 0.47
19,TACAGACAGAAATGCACACACATATATATATATATA [CACACA_site2283],10.2
20,TATTTGTTTGAATTTTTTTTTTTTTTTTTTTATGTG [CACACA_negctrl_site966],8.34 ± 0.58
